Source: PubChem BioAssay AID504444 (National Center for Advancing Translational Sciences (NCATS), 2011)
The campaign covered roughly 360,000 compounds. About 7,500 (2.1%) were called active. Another 20% or so got no clear call; they are omitted. Calls come from the whole dose curve; as a rule, active = well fitted inhibition curve with a large enough effect; inconclusive = small, poorly fitted or top-dose-only effect, or effect the other way; inactive = flat fitted curve, though single readings scatter. The entries are a selection whose mix differs from that of the whole data set. The source holds several records for some structures; these can differ, active in one and inactive in another.

assay: Nrf2 qHTS screen for inhibitors; conditions: A549 ARE-Fluc reporter, luciferase luminescence, 18-24 h; series mostly up to 46 µM; activity change, negative = inhibition: at the top concentration; note: nearly all actives have a fitted effect of over 60% in size
Description: NIH Molecular Libraries Probe Production Network [MLPCN]
NIH Chemical Genomics Center [NCGC]
Assay Provider: Shyam Biswal, Johns Hopkins University
Nrf2 is a transcription factor that maintains cellular redox homoestasis and protects cells from xenobiotics. Nrf2 binds to the antioxidant response element (ARE) to induce gene expression of a broad spectrum of genes that encode for antioxidants. […] Finding a small molecule that act as an inhibitor of Nrf2 function would represent a novel therapeutic target that could lead to improvement in survival of patients undergoing chemo- and/or radio- therapy.
This is the Nrf2 activity measured in the luminescent read.
1. Shibata, T., et al., Genetic Alteration of Keap1 Confers Constitutive Nrf2 Activation and Resistance to Chemotherapy in Gallbladder Cancer. Gastroenterology, 2008.
2. Sjoblom, T., et al., The consensus coding sequences of human breast and colorectal cancers. Science, 2006. 314(5797): p. 268-74.
NCGC Assay Protocol Summary:
A concentration-response assay was performed with A549 ARE_Fluc cells which are suspended in 5% FBS OPTI-MEM. Five uL were dispensed into 1536-well white TC-treated plate using the Kalypsys dispenser to achieve a density of 5000 cells/well in all columns except column 1. The plate is incubated at 37deg C at 5% CO2 for 2 hours before 23 nL of compounds are added with the Kalypsys pin tool equipped with a 1,536-pin array containing 10-nL slotted pins (FP1S10, 0.457-mm diameter, 50.8 mm long; V&P Scientific). The control compounds Budesonide and Staurosporine are both added at a concentration of 2mM and Budesonide is also added as a 1:10 titration, starting at 200uM, to achieve dose-response. After an 18-24 hour incubation at 37deg C at 5% CO2, 5ul of medium is added to column 1. Afterwards 1ul of 5x of CellTiter-Fluor (Promega) is added to every well. The plate is then incubated at 37deg C at 5% CO2 for 30 minutes before they are read on the ViewLux (Perkin Elmer) for a fluorescent read Ex=405(10)/Em=525(10) for a 3 second exposure, 2x binning, and high gain. Then 3 uL of 3x BugLite is dispensed into all wells and the plate is incubated at ambient room temperature for 15 minutes. Afterwards another ViewLux read is performed using the clear filter to get a luminescent read with the settings of 40 second exposure, 2x binning, and high gain. Cytotoxicity is assessed through the first fluorescent read and then biochemical activity against Nrf2 is measured in the luminescent read.
% is set by controls: 0 for no effect and ±100 for the full control effect; potency is the fitted concentration of half-maximal effect.

Structure (SMILES)	activity change, negative = inhibition	Potency
CCN(CCCNC(=O)Cn1ncc2c([nH]c3ccc(C)cc32)c1=O)Cc1ccccc1	inactive: 11.4%	–
CCOC(=O)[C@@H]1[C@H]2COc3ccc(Br)cc3[C@@H]2N2C(=O)N(c3ccc(OC)cc3)C(=O)[C@]12C	inactive: 4.95%	–
C=CC[C@H](CC(=O)N(CCO)Cc1ccccc1)C(=O)NCCOC(=O)[C@@H](CC=C)CC(=O)OC(C)(C)C	inactive: 13.2%	–
C#CCNC(=O)C1=C[C@H](c2csc3ccccc23)C[C@H](OCc2ccc(CO)cc2)O1	inactive: -1.33%	–
O=S(=O)(c1ccccc1)c1nc(-c2cccc(Cl)c2)oc1N1CCOCC1	inactive: -12%	–
Cc1ccccc1-c1cc(C(=O)NCc2ccc(OC(F)(F)F)cc2)n(CC2CC(c3cccnc3)=NO2)n1 (stereo not given)	–	active: 20.6 µM
Cn1c(=O)c(=O)n(C)c2cc(S(=O)(=O)CCC(=O)Nc3ccc(F)cc3)ccc21	inactive: 2.45%	–
CCOc1ccc(-c2nnc(N3CCCCC3)c3ccccc23)cc1	–	active: 25.9 µM
Cc1nn(-c2ccc(N3CCOCC3)nn2)c(C)c1CCC(=O)NCc1ccc(F)cc1	inactive: 5.68%	–
CCCCN(CC)CCCNC(=O)c1cc2c(=O)[nH]c3ccccc3c2s1	inactive: 12.9%	–
CS(=O)(=O)c1ccc(CNC(=O)C2(C(F)(F)F)C/C(=C\Cc3ccccc3)CCCO2)cc1 (stereo not given)	inactive: 1.98%	–
C[C@@H]1CC[C@@]2(O[C@H](CCO)C[C@H](O)[C@H]2O)O1	inactive: -13%	–
COC(C[C@H]1O[C@H]1[C@@H](O)[C@H](C)OCc1ccccc1)OC	inactive: 5.3%	–
Oc1ccc(N=Nc2ccc3ccccc3c2)cc1	–	active: 2.59 µM
COc1cc(OC)cc(C(=O)N[C@H](C(=O)Nc2nc(-c3ccc(OC)c(OC)c3)cs2)C(C)C)c1	–	active: 7.31 µM
Cc1cc2c(cc1S(=O)(=O)Nc1ccc(C(C)C)cc1)OCCN2C	–	active: 13 µM
O=C1CC[C@@H](C(=O)O)N1	inactive: 4.38%	–
C=CC[C@@H](CC(=O)N(CCO)Cc1ccccc1)C(=O)N[C@H](COC(=O)[C@@H](CC=C)CC(=O)OC(C)(C)C)Cc1ccccc1	inactive: 1.96%	–
COc1ccc(C2/C=C\CN(C(=O)CC(C)(C)C)CC(=O)N2Cc2ccc(F)cc2)cc1 (stereo not given)	inactive: -0.452%	–
Cc1ccc(Cl)cc1N1CCN(S(=O)(=O)c2ccc3c(c2)CC(=O)N3C)CC1	inactive: -6.94%	–
CCOC(=O)C1CCCN(S(=O)(=O)c2ccc3c(c2)N(C)C(=O)CC(=O)N3C)C1 (stereo not given)	inactive: -5.37%	–
C[C@H]1NC(=O)[C@]2(C)[C@@H](c3ccccc3)[C@H]3COc4ccccc4[C@@H]3N2C1=O	inactive: 9.26%	–
C=CCC[C@@H](Cc1ccc(F)cc1)C(=O)OC[C@H](C)NC(=O)[C@@H](CC=C)CC(=O)N(CCO)Cc1ccccc1	inactive: -23.9%	–
CCC(=O)N1c2ccc(S(=O)(=O)N3CCN(c4ccccc4Cl)CC3)cc2CC1C (stereo not given)	inactive: 0.848%	–
Cc1cccc(C)c1Nc1c(-c2ccccc2O)nc2ncccn12	inactive: 3.62%	–
O=C(/C=C/c1ccccc1)Nc1nc(-c2ccncc2)cs1	–	active: 13 µM
O=C(c1ccc(Cl)cc1)N1CCN(c2ccc([N+](=O)[O-])c(NCc3cccnc3)c2)CC1	–	active: 25.9 µM
CCn1c(SCC(=O)N2CCN(c3ccc(Cl)cc3)CC2)nc2ccccc2c1=O	inactive: 12.1%	–

Structure (SMILES)	activity change, negative = inhibition	Potency
C[C@]12C=CC(=O)C=C1CC[C@@H]1[C@@H]2[C@@H](O)C[C@@]2(C)[C@H]1CC[C@]2(O)C(=O)CO	–	active: 0.058 µM
CN1CCN(C(=O)/C=C\c2ccc(Cl)cc2)CC1	inactive: 3.36%	–
CCc1nn(CCCC(=O)NCc2ccc(C)cc2)c(=O)c2cc3occc3n12	inactive: -14.8%	–
CCOC(=O)C1CCCN(S(=O)(=O)c2cc(Br)cc3c2N(C(C)=O)CC3)C1 (stereo not given)	inactive: 1.94% [at 9.27 µM]	–
O=C(CCCN1C(=O)/C(=C/c2ccccc2)SC1=S)Nc1ccc(O)cc1	inactive: 19.4%	–
O=C1[C@H](Cc2ccccc2)NCCCC[C@@H](c2ccc(Cl)cc2)N1Cc1ccccc1	inactive: 10.8%	–
CC(=O)c1cccc(NC(=O)c2ccc3c(c2)CCN3S(=O)(=O)c2ccccc2)c1	inactive: 4.6%	–
CCN1C(=O)[C@@H]2[C@@H](c3ccc(-c4ccc(Cl)c(Cl)c4)cc3)N3CCCC[C@@]3(C(=O)OC)[C@@H]2C1=O	inactive: -14.7%	–
O=c1c2ccccc2nc(SCc2nc3ccccc3s2)n1Cc1ccco1	–	active: 4.61 µM
Cc1ccc(NC(=O)n2ncc3c(C)cccc32)c(C)c1	inactive: -7.21%	–
CC(=O)c1c(N2CCN(Cc3ccccc3)CC2)nc(=S)n(Cc2ccccc2)c1C	–	active: 20.6 µM
CCN(CC)CCNC(=O)c1ccc(NC(C)=O)cc1	inactive: 5.42%	–
CCOC(=O)C1CCCN(C(=O)Cn2ncc3c([nH]c4ccccc43)c2=O)C1 (stereo not given)	inactive: -13.5%	–
Cc1ccc(NS(=O)(=O)c2ccc3c(c2)CCC(=O)N3)cc1C	inactive: -26.2%	–
O=C1SC(SC(=Nc2ccccc2)Nc2ccccc2)C(=O)N1c1ccccc1 (stereo not given)	inactive: 35.9%	–
O=C1c2ccccc2NC(c2ccc(O)cc2)N1Cc1ccco1 (stereo not given)	inactive: -1.81%	–
CCC(C)N(C(=O)CSc1nc(-c2cccs2)nc2ccccc12)C1CCS(=O)(=O)C1 (stereo not given)	–	active: 8.2 µM
COC(=O)C1=C[C@@H](C(=O)OC)[C@@H]2C3=C(C(=O)[C@]2(C)NC(=O)c2ccccc2)[C@H](C)n2c(=O)n(-c4ccccc4)c(=O)n2[C@@H]3C1	inactive: 2.37%	–
Cc1ccccc1NC(=O)COC(=O)c1ccc(S(C)(=O)=O)c([N+](=O)[O-])c1	inactive: 2.12%	–
CCOC(=O)[C@@H]1[C@H]2COc3cc(OC)ccc3[C@H]2N2C(=O)N(c3cccc(F)c3)C(=O)[C@]12C	inactive: -18.2%	–
COc1ccc(S(=O)Cc2ccc(C(=O)N3CCN(c4cccc(C)c4C)CC3)o2)cc1 (stereo not given)	inactive: -19.4%	–
CCN1CCN(CCCNC(=O)CS(=O)(=O)Cc2nc(-c3cccc(OC)c3)oc2C)CC1	inactive: 4.02%	–
O=C(NCc1ccc(Cl)cc1)c1cc(S(=O)(=O)N2CCCCC2)c[nH]1	inactive: -7.44%	–
Cc1cc2c(cc1S(=O)(=O)NCc1ccccc1Cl)OCCN2C	inactive: -20.8%	–
CC(C)(C)c1nc(N2CCN(C(=O)c3ccco3)CC2)c2nnn(Cc3ccccc3)c2n1	–	active: 8.2 µM
C=C1CC[C@@H]2[C@](C)(CO)[C@H](O)CC[C@@]2(C)[C@@H]1/C=C/C1=CCOC1=O	inactive: -56.7%	–
COc1cc(C(=O)NCC(c2cccnc2)N2CCN(c3ccc(F)cc3)CC2)cc(OC)c1OC (stereo not given)	inactive: -10.7%	–
